# Source: PubChem BioAssay AID1508624 (National Center for Advancing Translational Sciences (NCATS), 2021)
# Hit rate of the full screen: of about 48,000 compounds, about 120 (0.25%) were called active. Roughly 4% stayed inconclusive and do not appear here. Calls follow the shape of the dose curve; as a rule, active = well fitted activation curve with a large enough effect; inconclusive = small, poorly fitted or top-dose-only effect, or another doubt; inactive = no such curve, though single readings can be large or run the other way. The list shows a part of the results.
# Assay: Primary qHTS for Identification of Small Molecule Activators of Huntingtin-Antisense Promoter Activity; also: nearly all actives have a fitted effect of over 55% in size
# Settings: HEK293 HTT-AS promoter firefly luciferase reporter (activity 0% = vehicle and -100% = no light), 24 h; series mostly up to 57.5 µM; activity change, positive = activation: at the top concentration
# Summary of the method: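 Firefly luciferase signal from promoter-reporter HEK293 cells was scaled between vehicle (0%) and zero RLU (-100%). Compounds were tested at final concentrations of up to 57.5 uM over 24 h at 37 degrees C. PTC124 at 50 uM final served as control inhibitor.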
# Potency is read from the fitted curve at half-maximal effect.
Compound,"activity change, positive = activation",Potency
CN(C)C(=O)CNC(=O)Cc1ccccc1,inactive: -19.9%,
CC(=O)c1[nH]c(C)c(C(=O)NCCc2ccc(C)cc2)c1C,inactive: -13.2%,
COc1ccc(-c2noc(-c3ccc(NCc4ccccc4OC)c([N+](=O)[O-])c3)n2)cc1,inactive: -1.25%,
CC(=O)Nc1cccc(C(=O)NCc2ccc3c(c2)CCN3C(C)=O)c1,inactive: -18.1%,
CN(C)CCCNc1oc(/C=C/c2ccc(F)cc2)nc1C#N,inactive: -1.14%,
Cc1ccc(NC(=O)CCCn2c(=O)c3cccn3c3cccnc32)c(Cl)c1,inactive: -4.36%,
O=c1oc2c3c(ccc2c2ccccc12)OCN(Cc1cccc(Cl)c1)C3,inactive: -0.288%,
CCOc1ccccc1N(C)C(=O)C1CCCN(c2ncnc3onc(-c4ccc(F)cc4)c23)C1 (stereo unspecified),inactive: -5.36%,
Cc1c(CCNC(=O)Cc2ccccc2)sc2nc(-c3ccc(F)cc3)nn12,inactive: 5.9%,
Cc1cc(C)c(NC(=O)CSc2nccn2Cc2ccco2)c(C)c1,,active: 5.01 µM
O=C(CN1CCN(Cc2ccc(Cl)cc2)C1=O)NCc1ccc(F)cc1,inactive: -25.2%,
CCN(CC)CCNC(=O)Cn1ncc2c([nH]c3ccccc32)c1=O,inactive: -8.96%,
CN1C2CCC1CC(OC(=O)C(CO)c1ccccc1)C2 (stereo unspecified),inactive: -9.07%,
CCCCN(CC)CCCNC(=O)c1cc2c(-c3ccc(OC)c(OC)c3)nn(C)c2s1,inactive: 15.9%,
CCOc1ccc(-c2cnc(NCc3ccc(OC)cc3OC)n2C)cc1,inactive: -12.2%,
O=C(NCc1ccc(F)cc1)c1ccc(NC(=O)N2CC3CCCN3c3ccccc32)cc1 (stereo unspecified),inactive: -46.5%,
COCCNC(=O)C1CCCN(S(=O)(=O)c2ccc3c(ccn3C)c2)C1 (stereo unspecified),inactive: -7.91%,
Cn1nc(C(=O)N2CCN(c3ccccc3F)CC2)c2c1-c1ccccc1SC2,inactive: -19.9%,
O=C1c2oc3ccc(F)cc3c(=O)c2C(c2cccc([N+](=O)[O-])c2)N1CCCN1CCOCC1 (stereo unspecified),inactive: -10.6%,
Cc1ccc(NC(=O)c2cccn2-c2nnc(N3CCCCC3)s2)cc1Cl,inactive: -15.7%,
Cc1ccc2nc(N(Cc3cccnc3)C(=O)C3COc4ccccc4O3)sc2c1 (stereo unspecified),inactive: 29.7%,
Cc1ccc(CSc2cn(CC(=O)N3CCCCC3)c3ccccc23)cc1,inactive: 6.79%,
CCc1ccc(CN(C(=O)c2cc3ccccc3oc2=O)C2CCS(=O)(=O)C2)cc1 (stereo unspecified),,active: 3.55 µM
COc1ccc(Cl)cc1NC(=O)CCC(=O)c1ccc(C)cc1,inactive: -21.2%,

Compound,"activity change, positive = activation",Potency
CCCCNC(=O)CCCn1c(=O)c2ccccc2n(Cc2ccccc2C)c1=O,inactive: -14.1%,
COc1ccc(CNC(=O)COCc2cc(-c3cccs3)on2)cc1OC,inactive: -12%,
CCc1c(C)sc2c1CCN(Cc1ccc(F)cc1)C2c1ccccc1 (stereo unspecified),inactive: -26.1%,
CCC(=O)N1CCc2cc(Br)cc(S(=O)(=O)N3CCN(c4ccccc4)CC3)c21,inactive: -4.92%,
COc1ccc(NC(=O)c2ccco2)cc1NC(=O)COc1cc(C)cc(C)c1,inactive: -31.5%,
COc1ccc(CNC(=O)C2CCCN(S(=O)(=O)c3ccc4c(c3)CCCN4C(C)=O)C2)cc1 (stereo unspecified),inactive: -49.9%,
CCc1nnc2c(NCc3ccc(F)cc3)nc3ccccc3n12,inactive: -12.5%,
CCOc1ccc2nc(N3CCCC(C(=O)Nc4ccc(Br)c(C)c4)C3)sc2c1 (stereo unspecified),inactive: 10.2%,
COc1ccccc1N1CCN(S(=O)(=O)c2ccc(F)c(C(=O)Nc3ccc(C)c(F)c3)c2)CC1,inactive: -24.1%,
COc1ccc2c(c1)CC(C(=O)N1CCC(C(N)=O)CC1)CO2 (stereo unspecified),inactive: -6.99%,
COc1ccc(CCNC(=O)c2cc(Sc3cccc(Cl)c3)nc3ccccc23)cc1OC,inactive: -36.8%,
COc1ccc2c(c1)NC(c1ccc(OCC(C)C)cc1)=NC(c1ccncc1)=N2,inactive: -3.66%,
CCOc1ccc(-c2n[nH]c3c2C(c2ccccc2OC)N(c2ccc(Br)cc2)C3=O)cc1 (stereo unspecified),inactive: -13%,
COc1ccccc1N1CCN(C(=O)c2oc3ccccc3c2NC(=O)C(C)Oc2ccccc2)CC1 (stereo unspecified),inactive: -1.43%,
O=C(Nc1cc(Cl)cc(Cl)c1)c1ccc(F)c(S(=O)(=O)N2CCCCCC2)c1,inactive: -13.1%,
Cc1ccc(C(C)C)c(OCCn2cc(C(=O)c3ccco3)c3ccccc32)c1,inactive: -34%,
CCOc1ccc(CNC(=O)c2cc3c(=O)n(C)c4ccccc4c3s2)cc1,inactive: -8.88%,
O=C(c1ccc2c(c1)OCCO2)N(Cc1cccnc1)c1nc2ccc(F)cc2s1,inactive: -38.2%,
Cc1ccc(NC(=O)Cn2c(=O)n(Cc3ccco3)c(=O)c3ccccc32)cc1,inactive: -22.7%,
Cc1ccc(NC(=O)C2CCCN2S(=O)(=O)c2cccc3cccnc23)cc1 (stereo unspecified),inactive: -15.2%,
COc1ccc(-c2ccnc3c(-c4ccc(F)cc4)c(C)nn23)cc1OC,inactive: -12.1%,
CC1CN(C(=O)N2CCC(C(=O)NC3CCCCCC3)CC2)c2cc(Cl)ccc2O1 (stereo unspecified),inactive: -4.41%,
Cc1cc(C)n2nc(CNS(=O)(=O)c3ccc(Cl)cc3)nc2n1,inactive: -9.84%,
O=C(Cn1cc(SCc2cccc(Cl)c2)c2ccccc21)N1CCOCC1,inactive: 31.5%,

Compound,"activity change, positive = activation",Potency
O=c1[nH]c(SCc2ccc(F)cc2)nc2c1CCCC2,inactive: -0.696%,
COc1cc(C(=O)NC2CC(=O)N(c3cccc(F)c3)C2)cc(OC)c1OC (stereo unspecified),inactive: 3.01%,
CC(C)c1ccc(OCc2cc(=O)n3c4c(sc3n2)CCCC4)cc1,inactive: -15.5%,
CCc1ccc(Nc2cc(C)nc3nc(Cc4ccc(Cl)cc4)nn23)cc1,inactive: -44.4%,
CCOC(=O)c1ccc(CSc2nnc3cc(C)c4ccccc4n23)cc1,inactive: -19.8%,
COc1ccccc1NC(=O)CN(c1ccc(C(C)C)cc1)S(=O)(=O)c1c(C)noc1C,inactive: -26.7%,
O=C(NC1CCCCC1)c1ccc2c(c1)sc1nc(-c3ccccc3)cn12,inactive: -14.4%,
N#Cc1ccc(C(=O)N2CCN(c3nc4ccc(F)cc4s3)CC2)cc1,inactive: -23.7%,
COc1ccc(-c2oc3ncn4nc(-c5ccc(Cl)cc5)nc4c3c2-c2ccc(OC)cc2)cc1,inactive: -9.43%,
COc1cc2c(=O)n(Cc3ccccc3)c(=O)n(CC(=O)Nc3cc(C(F)(F)F)ccc3Cl)c2cc1OC,inactive: -6.53%,
CN1C(C(=O)Nc2ccc(OC(F)(F)F)cc2)=CC(c2ccc3c(c2)OCO3)=NS1(=O)=O,inactive: -27.1%,
O=C(Cn1cccc1C(=O)c1ccccc1)NCc1ccc(F)cc1,inactive: 13%,
CCN(CC)c1ccc(NS(=O)(=O)c2ccc3c(c2)CCCN3C(C)=O)c(C)c1,inactive: -24.8%,
COC(=O)c1cc2oc(C)cc2n1Cc1c(C)cc(C)cc1C,inactive: 7.29%,
COc1ccc(C2c3c(n(C)c4ccccc34)C(=O)N2CC(=O)Nc2ccc(Cl)cc2)cc1 (stereo unspecified),inactive: -29.3%,
CCc1ccc(N2CCn3c2nc2c3c(=O)n(Cc3cccc(C)c3)c(=O)n2C)cc1,inactive: -6.33%,
CCOC(=O)c1c(C)oc2ncnc(NCCc3ccccc3)c12,inactive: -14.2%,
COc1cc2nc(SCC(=O)Nc3ccc(F)cc3)n3nc(CCn4c(C)nc5ccccc54)nc3c2cc1OC,inactive: 5.73%,
Cc1ccc(OC(=O)c2snnc2C)cc1C,inactive: -4.38%,
Cc1ccc(NC(=O)C(=O)NCC(c2ccc3c(c2)OCO3)N2CCOCC2)c(C)c1 (stereo unspecified),inactive: -5.81%,
O=C(CSc1ncc2c(n1)-c1ccccc1N(Cc1ccc(F)cc1)S2(=O)=O)c1ccc(Br)cc1,inactive: -17.4%,
CCCN1CCN(CCNC(=O)Nc2cc(OC)cc(OC)c2)CC1,inactive: 2.91%,
CCCCNC(=O)c1ccc2c(c1)ncn2-c1cc(OC)ccc1OC,inactive: -3.16%,
Cc1c(Cl)cccc1-n1ncc(C(=O)Nc2ccc(Br)cc2F)c1C1CCNCC1,inactive: -7.89%,

Compound,"activity change, positive = activation",Potency
O=C(Nc1ccccc1F)c1ccc2c(Cl)c3c(nc2c1)CCC3,inactive: -68.5%,
CCOc1ccccc1CNCc1cccn1-c1nnc(N2CCN(c3ccccc3)CC2)s1,inactive: -46.3%,
COC(=O)c1ccc(NC(=O)CCn2cnnn2)cc1,inactive: -5.03%,
CCN(CCCNC(=O)c1nn(-c2ccc(OC)cc2)c(=O)c2c1c1ccccc1n2C)c1ccccc1,inactive: -2.82%,
CCc1cccc(NC(=O)CCNS(=O)(=O)c2cccc3nonc23)c1,inactive: -27.1%,
COc1ccccc1NC(=O)C1=C(C)Nc2nnnn2C1c1ccc(C(F)(F)F)cc1 (stereo unspecified),inactive: -19.2%,
CN[C@@H](C)C(=O)N[C@H]1CCCC[C@H]2CC[C@@H](C(=O)N[C@@H](c3ccccc3)c3cn(CCCCc4ccc(CCCCn5cc([C@@H](NC(=O)[C@@H]6CC[C@@H]7CCCC[C@H](NC(=O)[C@H](C)NC)C(=O)N76)c6ccccc6)nn5)cc4)nn3)N2C1=O,inactive: -2.19%,
COC(=O)c1ccc(NC(=O)c2nc(-c3ccc(Cl)cc3)n3c2CCCCC3)cc1,inactive: -39.8%,
O=C(Cn1nc(C(F)(F)F)c2c1CCCC2)Nc1ccc(Br)cc1,inactive: -46.1%,
CCCCOC(=O)CC(CC(=O)OCCCC)(OC(C)=O)C(=O)OCCCC,inactive: -4.25%,
Cc1ccc(-n2nnnc2CNC(=O)c2cc(C(F)(F)F)cc(C(F)(F)F)c2)cc1C,inactive: -44.5%,
COc1cccc(CNC(=O)COc2cc(=O)n(C)c3ccccc23)c1,inactive: -7.91%,
COc1ccc(S(=O)(=O)Nc2ccc(-c3cn4c(C)csc4n3)cc2)cc1,inactive: -14.2%,
Cc1ccc(N2CCN(S(=O)(=O)c3cccc4ccccc34)CC2)cc1Cl,inactive: -8.29%,
COc1ccccc1S(=O)(=O)Cc1ccc(C(=O)NCc2ccc(Cl)cc2)o1,inactive: -27.8%,
O=C(Nc1cccc(C(F)(F)F)c1)c1cc(CN2CCOCC2)on1,inactive: -13.2%,
CCc1ccc(NC(=O)[C@H](Cc2ccccc2)N2Cc3ccccc3C2=O)cc1,inactive: -10.3%,
CCOc1ccc(S(=O)(=O)c2c(C(=O)c3ccc(CC)cc3)cnc3ccc(C)cc23)cc1,inactive: -15.4%,
CN(C)CCNC(=O)C1CCN(Cc2cc3ccccc3n2Cc2ccccc2)CC1,inactive: -31%,
C=CCNC1=C2C[C@@H](C)C[C@H](OC)[C@@H](O)[C@@H](C)C=C(C)[C@H](OC(N)=O)[C@@H](OC)C=CC=C(C)C(=O)NC(=CC1=O)C2=O,inactive: -54.2%,
COc1cc(NC(=O)CCc2c(C)nn(-c3ccc4nnc(C)n4n3)c2C)cc(OC)c1OC,inactive: -11.2%,
CCOc1ccc(N2CC(NC(=O)c3cccs3)CC2=O)cc1 (stereo unspecified),inactive: -5.03%,
CCCN(CCC)CCCNC(=O)c1cc2c(-c3ccc(OC)c(OC)c3)nn(C)c2s1,inactive: -2.06%,
Cc1ccc(S(=O)(=O)n2nc(-c3ccccc3)nc2NCc2ccc(Cl)cc2)cc1,inactive: -19.4%,
